# Source: the supplement of paper PMC8728848
# This is one part of the list.
# B1: HPA (Helix pomatia), Q575S3 (protein)
# chain: MWAHLTGLLLICALSLSAAQRAQTGEIDCGSDSSWPKDPSDNPNRDNTREIVKHVTFSPQFCREPKVILSVTTLDAEHTKNLRYEARLKSVSPSGLSASCYSWHDGTIYRMKLSWLAVED
# Columns and labels:
# Assay in all cases: glycan array binding signal (z-score within array); higher = stronger binding
# Settings in all cases: glycan notation: IUPAC condensed, linker removed
# [1] = biological target: GlcNAc(b1-3)Gal(b1-4)GlcNAc(b1-3)Gal(b1-4)GlcNAc(b1-2)Man(a1-3)[GlcNAc(b1-3)Gal(b1-4)GlcNAc(b1-3)Gal(b1-4)GlcNAc(b1-2)Man(a1-6)]Man(b1-4)GlcNAc(b1-4)GlcNAc
# Procedure, shortened: (§1)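 From the Consortium for Functional Glycomics database, 3228 arrays were curated, keeping only those whose protein sequence was available. Binding is given as a within-array Z-score averaged across arrays sharing a protein sequence and across linkers. Negative Z-scores can be read as non-binding.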
# [2] = biological target: GlcNAc(b1-3)Gal(b1-4)GlcNAc(b1-3)Gal(b1-4)GlcNAc(b1-2)Man(a1-3)[GlcNAc(b1-3)Gal(b1-4)GlcNAc(b1-3)Gal(b1-4)GlcNAc(b1-2)Man(a1-6)]Man(b1-4)GlcNAc(b1-4)[Fuc(a1-6)]GlcNAc
# Procedure, shortened: as §1
# [3] = biological target: GlcNAc(b1-3)Gal(b1-4)GlcNAc(b1-3)Gal(b1-4)GlcNAc(b1-2)[GlcNAc(b1-3)Gal(b1-4)GlcNAc(b1-3)Gal(b1-4)GlcNAc(b1-6)]Man(a1-6)[GlcNAc(b1-3)Gal(b1-4)GlcNAc(b1-3)Gal(b1-4)GlcNAc(b1-2)Man(a1-3)]Man(b1-4)GlcNAc(b1-4)[Fuc(a1-6)]GlcNAc
# Procedure, shortened: as §1
# [4] = biological target: GlcNAc(b1-3)Gal(b1-4)GlcNAc(b1-3)Gal(b1-4)GlcNAc(b1-3)Gal(b1-4)GlcNAc(b1-2)Man(a1-3)[GlcNAc(b1-3)Gal(b1-4)GlcNAc(b1-3)Gal(b1-4)GlcNAc(b1-3)Gal(b1-4)GlcNAc(b1-2)Man(a1-6)]Man(b1-4)GlcNAc(b1-4)GlcNAc
# Procedure, shortened: as §1
# [5] = biological target: GlcNAc(b1-3)Gal(b1-4)GlcNAc(b1-3)Gal(b1-4)GlcNAc(b1-3)Gal(b1-4)GlcNAc(b1-2)Man(a1-3)[GlcNAc(b1-3)Gal(b1-4)GlcNAc(b1-3)Gal(b1-4)GlcNAc(b1-3)Gal(b1-4)GlcNAc(b1-2)Man(a1-6)]Man(b1-4)GlcNAc(b1-4)[Fuc(a1-6)]GlcNAc
# Procedure, shortened: as §1
# [6] = biological target: GlcNAc(b1-3)Gal(b1-4)GlcNAc(b1-3)Gal(b1-4)GlcNAc(b1-3)Gal(b1-4)GlcNAc(b1-2)[GlcNAc(b1-3)Gal(b1-4)GlcNAc(b1-3)Gal(b1-4)GlcNAc(b1-3)Gal(b1-4)GlcNAc(b1-6)]Man(a1-6)[GlcNAc(b1-3)Gal(b1-4)GlcNAc(b1-3)Gal(b1-4)GlcNAc(b1-3)Gal(b1-4)GlcNAc(b1-2)Man(a1-3)]Man(b1-4)GlcNAc(b1-4)[Fuc(a1-6)]GlcNAc
# Procedure, shortened: as §1
# [7] = biological target: GlcNAc(b1-3)Gal(b1-4)GlcNAc(b1-3)Gal(b1-4)GlcNAc(b1-3)Gal(b1-4)GlcNAc(b1-3)Gal(b1-4)GlcNAc(b1-2)Man(a1-3)[GlcNAc(b1-3)Gal(b1-4)GlcNAc(b1-3)Gal(b1-4)GlcNAc(b1-3)Gal(b1-4)GlcNAc(b1-3)Gal(b1-4)GlcNAc(b1-2)Man(a1-6)]Man(b1-4)GlcNAc(b1-4)GlcNAc
# Procedure, shortened: as §1
# [8] = biological target: GlcNAc(b1-3)Gal(b1-4)GlcNAc(b1-3)Gal(b1-4)GlcNAc(b1-3)Gal(b1-4)GlcNAc(b1-3)Gal(b1-4)GlcNAc(b1-2)Man(a1-3)[GlcNAc(b1-3)Gal(b1-4)GlcNAc(b1-3)Gal(b1-4)GlcNAc(b1-3)Gal(b1-4)GlcNAc(b1-3)Gal(b1-4)GlcNAc(b1-2)Man(a1-6)]Man(b1-4)GlcNAc(b1-4)[Fuc(a1-6)]GlcNAc
# Procedure, shortened: as §1
# [9] = biological target: GlcNAc(b1-3)Gal(b1-4)GlcNAc(b1-3)Gal(b1-4)GlcNAc(b1-3)Gal(b1-4)GlcNAc(b1-3)Gal(b1-4)GlcNAc(b1-2)[GlcNAc(b1-3)Gal(b1-4)GlcNAc(b1-3)Gal(b1-4)GlcNAc(b1-3)Gal(b1-4)GlcNAc(b1-3)Gal(b1-4)GlcNAc(b1-6)]Man(a1-6)[GlcNAc(b1-3)Gal(b1-4)GlcNAc(b1-3)Gal(b1-4)GlcNAc(b1-3)Gal(b1-4)GlcNAc(b1-3)Gal(b1-4)GlcNAc(b1-2)Man(a1-3)]Man(b1-4)GlcNAc(b1-4)[Fuc(a1-6)]GlcNAc
# Procedure, shortened: as §1
# [10] = biological target: GlcNAc(b1-3)Gal(b1-4)GlcNAc(b1-3)Gal(b1-4)GlcNAc(b1-3)GalNAc
# Procedure, shortened: as §1
# [11] = biological target: GlcNAc(b1-3)Gal(b1-4)GlcNAc(b1-3)GalNAc
# Procedure, shortened: as §1
# [12] = biological target: GlcNAc(b1-3)Gal(b1-4)GlcNAc(b1-3)[GlcNAc(b1-3)Gal(b1-4)GlcNAc(b1-3)]GalNAc
# Procedure, shortened: as §1
# [13] = biological target: GlcNAc(b1-3)Gal(b1-4)GlcNAc(b1-6)[Gal(b1-3)]GalNAc
# Procedure, shortened: as §1
# [14] = biological target: GlcNAc(b1-3)Gal(b1-4)GlcNAc(b1-6)[GlcNAc(b1-3)Gal(b1-3)]GalNAc
# Procedure, shortened: as §1
# [15] = biological target: GlcNAc(b1-3)Gal(b1-4)GlcNAc(b1-6)[GlcNAc(b1-3)]Gal(b1-4)GlcNAc
# Procedure, shortened: as §1
# GlcNAc(b1-3)GalNAc = biological target: GlcNAc(b1-3)GalNAc
# Procedure, shortened: as §1
# GlcNAc(b1-3)Man = biological target: GlcNAc(b1-3)Man
# Procedure, shortened: as §1
# [16] = biological target: GlcNAc(b1-3)[GlcNAc(b1-4)][GlcNAc(b1-6)]GlcNAc
# Procedure, shortened: as §1
# [17] = biological target: GlcNAc(b1-3)[GlcNAc(b1-6)]Gal(b1-4)GlcNAc
# Procedure, shortened: as §1
# [18] = biological target: GlcNAc(b1-3)[GlcNAc(b1-6)]GalNAc
# Procedure, shortened: as §1
# [19] = biological target: GlcNAc(b1-4)Gal(b1-4)GlcNAc
# Procedure, shortened: as §1
# GlcNAc(b1-4)GlcNAc = biological target: GlcNAc(b1-4)GlcNAc
# Procedure, shortened: as §1
# [20] = biological target: GlcNAc(b1-4)GlcNAc(b1-4)GlcNAc
# Procedure, shortened: as §1
# [21] = biological target: GlcNAc(b1-4)GlcNAc(b1-4)GlcNAc(b1-4)GlcNAc(b1-4)GlcNAc
# Procedure, shortened: as §1
# [22] = biological target: GlcNAc(b1-4)GlcNAc(b1-4)GlcNAc(b1-4)GlcNAc(b1-4)GlcNAc(b1-4)GlcNAc
# Procedure, shortened: as §1
# [23] = biological target: GlcNAc(b1-4)[GlcNAc(b1-6)]GalNAc
# Procedure, shortened: as §1
# [24] = biological target: GlcNAc(b1-6)Gal(b1-4)GlcNAc
# Procedure, shortened: as §1
# GlcNAc(b1-6)GalNAc = biological target: GlcNAc(b1-6)GalNAc
# Procedure, shortened: as §1
# GlcNAc3Prop(b1-4)GlcNAc = biological target: GlcNAc3Prop(b1-4)GlcNAc
# Procedure, shortened: as §1
# [25] = biological target: GlcNAc6S(b1-3)Gal(b1-4)GlcNAc
# Procedure, shortened: as §1
# Kdn(a2-3)Gal(b1-3)GalNAc = biological target: Kdn(a2-3)Gal(b1-3)GalNAc
# Procedure, shortened: as §1
# Kdn(a2-3)Gal(b1-3)GlcNAc = biological target: Kdn(a2-3)Gal(b1-3)GlcNAc
# Procedure, shortened: as §1
# Kdn(a2-3)Gal(b1-4)Glc = biological target: Kdn(a2-3)Gal(b1-4)Glc
# Procedure, shortened: as §1
# Kdn(a2-3)Gal(b1-4)GlcNAc = biological target: Kdn(a2-3)Gal(b1-4)GlcNAc
# Procedure, shortened: as §1
# [26] = biological target: Kdn(a2-3)Gal(b1-4)[Fuc(a1-3)]GlcNAc
# Procedure, shortened: as §1
# Kdn(a2-6)Gal(b1-4)GlcNAc = biological target: Kdn(a2-6)Gal(b1-4)GlcNAc
# Procedure, shortened: as §1
# [27] = biological target: Man(a1-2)Man(a1-2)Man(a1-3)Man
# Procedure, shortened: as §1
# [28] = biological target: Man(a1-2)Man(a1-2)Man(a1-6)[Man(a1-3)]Man
# Procedure, shortened: as §1
# Man(a1-2)Man(a1-3)Man = biological target: Man(a1-2)Man(a1-3)Man
# Procedure, shortened: as §1
# [29] = biological target: Man(a1-2)Man(a1-3)[Man(a1-2)Man(a1-6)]Man
# Procedure, shortened: as §1
# [30] = biological target: Man(a1-2)Man(a1-3)[Man(a1-2)Man(a1-6)]Man(a1-6)[Man(a1-2)Man(a1-2)Man(a1-3)]Man
# Procedure, shortened: as §1
# [31] = biological target: Man(a1-2)Man(a1-3)[Man(a1-2)Man(a1-6)]Man(a1-6)[Man(a1-2)Man(a1-2)Man(a1-3)]Man(b1-4)GlcNAc(b1-4)GlcNAc
# Procedure, shortened: as §1
# [32] = biological target: Man(a1-2)Man(a1-3)[Man(a1-6)]Man(a1-6)[Man(a1-2)Man(a1-3)]Man(b1-4)GlcNAc(b1-4)GlcNAc
# Procedure, shortened: as §1
# [33] = biological target: Man(a1-2)Man(a1-6)[Man(a1-3)]Man(a1-6)[Man(a1-2)Man(a1-2)Man(a1-3)]Man
# Procedure, shortened: as §1
# [34] = biological target: Man(a1-2)Man(a1-6)[Man(a1-3)]Man(a1-6)[Man(a1-2)Man(a1-2)Man(a1-3)]Man(b1-4)GlcNAc(b1-4)GlcNAc
# Procedure, shortened: as §1
binder,measurement,setting,value
B1,glycan array binding signal (z-score),[1],-0.16
same,glycan array binding signal (z-score),[2],-0.243
same,glycan array binding signal (z-score),[3],-0.241
same,glycan array binding signal (z-score),[4],-0.257
same,glycan array binding signal (z-score),[5],-0.241
same,glycan array binding signal (z-score),[6],-0.239
same,glycan array binding signal (z-score),[7],-0.252
same,glycan array binding signal (z-score),[8],-0.248
same,glycan array binding signal (z-score),[9],-0.248
same,glycan array binding signal (z-score),[10],-0.23
same,glycan array binding signal (z-score),[11],-0.261
same,glycan array binding signal (z-score),[12],-0.261
same,glycan array binding signal (z-score),[13],-0.259
same,glycan array binding signal (z-score),[14],-0.244
same,glycan array binding signal (z-score),[15],-0.116
same,glycan array binding signal (z-score),GlcNAc(b1-3)GalNAc,-0.258
same,glycan array binding signal (z-score),GlcNAc(b1-3)Man,-0.26
same,glycan array binding signal (z-score),[16],-0.244
same,glycan array binding signal (z-score),[17],-0.267
same,glycan array binding signal (z-score),[18],-0.253
same,glycan array binding signal (z-score),[19],0.407
same,glycan array binding signal (z-score),GlcNAc(b1-4)GlcNAc,-0.259
same,glycan array binding signal (z-score),[20],-0.263
same,glycan array binding signal (z-score),[21],-0.264
same,glycan array binding signal (z-score),[22],-0.262
same,glycan array binding signal (z-score),[23],-0.263
same,glycan array binding signal (z-score),[24],-0.26
same,glycan array binding signal (z-score),GlcNAc(b1-6)GalNAc,-0.258
same,glycan array binding signal (z-score),GlcNAc3Prop(b1-4)GlcNAc,-0.274
same,glycan array binding signal (z-score),[25],-0.26
same,glycan array binding signal (z-score),Kdn(a2-3)Gal(b1-3)GalNAc,-0.26
same,glycan array binding signal (z-score),Kdn(a2-3)Gal(b1-3)GlcNAc,-0.267
same,glycan array binding signal (z-score),Kdn(a2-3)Gal(b1-4)Glc,0.014
same,glycan array binding signal (z-score),Kdn(a2-3)Gal(b1-4)GlcNAc,-0.262
same,glycan array binding signal (z-score),[26],-0.256
same,glycan array binding signal (z-score),Kdn(a2-6)Gal(b1-4)GlcNAc,-0.265
same,glycan array binding signal (z-score),[27],-0.269
same,glycan array binding signal (z-score),[28],-0.26
same,glycan array binding signal (z-score),Man(a1-2)Man(a1-3)Man,-0.264
same,glycan array binding signal (z-score),[29],-0.27
same,glycan array binding signal (z-score),[30],-0.266
same,glycan array binding signal (z-score),[31],-0.218
same,glycan array binding signal (z-score),[32],-0.264
same,glycan array binding signal (z-score),[33],-0.268
same,glycan array binding signal (z-score),[34],-0.264
